According to article PMC3708813:
Results are given in words; binding and its absence hold for the method and conditions named. Binding seen in cells or lysates may run through a third protein. Some entries that bind do so weakly or less than the wild type. Where a sequence is shown, tags or fusion partners need not be part of it.

Amino acid sequences for entries named in this document (tags omitted). A change or cut given only in a name is not applied to a line headed by its entry.
UniProt P0A6Z3: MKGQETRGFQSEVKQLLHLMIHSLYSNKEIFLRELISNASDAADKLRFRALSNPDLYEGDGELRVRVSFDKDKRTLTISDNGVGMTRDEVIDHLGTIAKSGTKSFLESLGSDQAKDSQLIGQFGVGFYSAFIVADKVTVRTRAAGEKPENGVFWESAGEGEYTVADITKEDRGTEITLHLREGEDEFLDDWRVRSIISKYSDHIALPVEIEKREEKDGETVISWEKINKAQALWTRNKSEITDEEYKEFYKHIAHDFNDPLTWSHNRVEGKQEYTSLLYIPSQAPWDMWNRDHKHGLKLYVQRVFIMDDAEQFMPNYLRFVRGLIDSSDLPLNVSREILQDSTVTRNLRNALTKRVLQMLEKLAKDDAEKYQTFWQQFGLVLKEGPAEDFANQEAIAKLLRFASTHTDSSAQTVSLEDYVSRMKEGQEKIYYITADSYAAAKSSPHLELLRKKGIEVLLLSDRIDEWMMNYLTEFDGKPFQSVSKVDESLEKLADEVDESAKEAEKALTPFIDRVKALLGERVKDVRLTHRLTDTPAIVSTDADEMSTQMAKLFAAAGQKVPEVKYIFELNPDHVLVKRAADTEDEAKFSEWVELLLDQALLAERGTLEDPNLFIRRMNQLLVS

How the values were obtained:
[1] = biological target: T1, FliN-CFP (flagellar motor switch protein FliN) (E. coli) (UniProt P15070); assay: FRET or BRET; acceptor photobleaching FRET between YFP and CFP fusions in living E. coli cells of a ΔcbpAΔdnaJ background (no DnaK co-chaperones)
T1 sequence: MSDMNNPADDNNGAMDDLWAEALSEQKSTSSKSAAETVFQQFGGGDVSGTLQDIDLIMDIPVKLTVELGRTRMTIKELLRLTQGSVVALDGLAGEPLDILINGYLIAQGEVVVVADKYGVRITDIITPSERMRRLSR

[2] = biological target: T1, FliN-CFP (flagellar motor switch protein FliN) (E. coli); assay: FRET or BRET; acceptor photobleaching FRET between YFP and CFP fusions in living wild-type E. coli cells over a growth curve (OD600); cells in tethering buffer on an agarose pad
[3] = biological target: T2, CheZ (dimeric phosphatase), fluorescent protein fusion (E. coli) (UniProt P0A9H9); assay: FRET or BRET; acceptor photobleaching FRET in living E. coli cells; panel of chemoreceptor cluster components against HtpG(E34A) (Table S4); also in ΔflhC strains, which lack endogenous flagellar and chemotaxis proteins
T2 sequence: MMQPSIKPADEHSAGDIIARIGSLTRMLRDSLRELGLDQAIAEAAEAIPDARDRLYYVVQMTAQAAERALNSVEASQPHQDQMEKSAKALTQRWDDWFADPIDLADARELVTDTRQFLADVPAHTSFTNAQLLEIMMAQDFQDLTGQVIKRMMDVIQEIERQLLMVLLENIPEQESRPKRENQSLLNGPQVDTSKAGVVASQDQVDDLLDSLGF

[4] = biological target: T3, CFP fusion to full-length CheA (E. coli) (UniProt P07363); assay: as above
T3 sequence: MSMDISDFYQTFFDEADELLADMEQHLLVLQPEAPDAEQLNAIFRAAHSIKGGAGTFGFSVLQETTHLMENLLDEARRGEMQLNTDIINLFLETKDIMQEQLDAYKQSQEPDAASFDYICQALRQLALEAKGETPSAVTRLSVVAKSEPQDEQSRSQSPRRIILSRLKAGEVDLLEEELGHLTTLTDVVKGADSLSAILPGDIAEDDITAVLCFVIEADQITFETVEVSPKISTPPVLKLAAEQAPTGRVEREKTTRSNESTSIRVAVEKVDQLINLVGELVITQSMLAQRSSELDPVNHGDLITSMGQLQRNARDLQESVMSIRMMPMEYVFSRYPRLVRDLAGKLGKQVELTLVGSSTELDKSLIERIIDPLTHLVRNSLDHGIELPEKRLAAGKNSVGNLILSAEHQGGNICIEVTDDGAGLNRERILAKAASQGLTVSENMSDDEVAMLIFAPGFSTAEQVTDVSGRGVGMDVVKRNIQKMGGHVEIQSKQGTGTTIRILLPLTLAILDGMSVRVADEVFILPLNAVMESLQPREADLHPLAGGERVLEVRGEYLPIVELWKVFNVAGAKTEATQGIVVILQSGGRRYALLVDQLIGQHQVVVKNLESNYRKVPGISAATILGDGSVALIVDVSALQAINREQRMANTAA

Substance | binding [1] | binding [2] | binding [3] | binding [4]
HtpG-YFP (E. coli Hsp90, High-temperature protein G) (from UniProt P0A6Z3 1-624) | no binding (condition: in a ΔcbpAΔdnaJ background) | binds | – | –
HtpG(E34A)-YFP (from UniProt P0A6Z3 1-624) | no binding (condition: in a ΔcbpAΔdnaJ background) | binds | binds | binds
